The other results are listed elsewhere or left out. These are further read-outs of the screen, such as a control signal, another cell line or another target. No call is given for them.
What was measured:
Test in all cases: Primary Screen for Target Class Profiling of Small Molecule Inhibitors of Methyltransferases
[1] = molecular target: Glycine N-methyltransferase (Homo sapiens) (UniProt Q14749); conditions: purified enzyme, MTase-Glo SAH luminescence; measured here: GNMT inhibition; at 40 µM; stronger effect = lower value
Summary of the method: (§1)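 Each enzyme was reacted with SAM and its substrate, with compounds tested once at 40 uM; SAH formed was read by MTase-Glo luminescence.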

[2] = molecular target: Guanidinoacetate N-methyltransferase (Homo sapiens) (UniProt Q14353); conditions: purified enzyme, MTase-Glo SAH luminescence; measured here: GAMT inhibition; at 40 µM; stronger effect = lower value
Summary of the method: as §1

[3] = molecular target: Histamine N-methyltransferase (Homo sapiens) (UniProt P50135); conditions: purified enzyme, MTase-Glo SAH luminescence; measured here: HNMT inhibition; at 40 µM; stronger effect = lower value
Summary of the method: as §1

[4] = molecular target: Nicotinamide N-methyltransferase (Homo sapiens) (UniProt P40261); conditions: purified enzyme, MTase-Glo SAH luminescence; measured here: NNMT inhibition; at 40 µM; stronger effect = lower value
Summary of the method: as §1

[5] = molecular target: Phenylethanolamine N-methyltransferase (Homo sapiens) (UniProt P11086); conditions: purified enzyme, MTase-Glo SAH luminescence; measured here: PNMT inhibition; at 40 µM; stronger effect = lower value
Summary of the method: as §1
On the % scale 0 is the no-effect control and ±100 the full control effect.

| SMILES | activity change, negative = inhibition [1] [%] | activity change, negative = inhibition [2] [%] | activity change, negative = inhibition [3] [%] | activity change, negative = inhibition [4] [%] | activity change, negative = inhibition [5] [%] |
| --- | --- | --- | --- | --- | --- |
| Cc1cc2c(cc3n2CC(C)(C(=O)NC2CCCCC2)N(CCN2CCN(C)CC2)C3=O)o1 (stereo not given) | 1.94 | 5.27 | -1.51 | 4.48 | -2.76 |
| CC(C)NC(=O)N1CCC2(CC1)CN(C(=O)Cc1c[nH]c3ccccc13)CCO2 | -0.795 | 0.24 | 2.44 | -8.2 | -3.43 |
| O=C1NCCCCCCN[C@H]2C[C@H](c3nc(-c4cnccn4)no3)C[C@@H]12 | -2.29 | -0.414 | -0.239 | -0.377 | 0.609 |
| CCn1cc(CN2CCN(C(=O)c3cccs3)CC2)ccc1=O | -59 | -33.4 | -8.14 | -11 | -35.9 |
| Cc1cnc(NC(=O)Nc2cc(Br)c(C)cc2OCC2CNCCO2)cn1 (stereo not given) | 3.86 | 12.4 | 9.74 | -4.74 | 4.08 |
| Cc1cccc(N2C(=O)c3cc4occc4n3CC2(C)C(=O)NC2CCC(C)CC2)c1C (stereo not given) | -10.3 | -1.59 | -4.04 | -8.29 | -9.74 |
| O=C(O)[C@H]1C[C@@H](C(=O)NCc2ccncc2)CN(C2CCOCC2)C1 | -3.93 | -8 | -3.59 | -13.1 | 10.5 |
| CC(C)CCN1C(=O)c2cc(-c3ccco3)nn2CC1(C)C(=O)NC1CCCCCC1 (stereo not given) | 2.77 | -1 | 4.97 | 2.32 | -2.23 |
| CCC[C@H]1CN(C(=O)c2cc(=O)[nH]c3cc(F)ccc23)C[C@@H]1N | -2.96 | -0.936 | -1.84 | -1.8 | 3.05 |
| CSc1ccc(CCN2C(=O)c3cc4ccccc4n3CC2(C)C(=O)NCc2ccccc2)cc1 (stereo not given) | 0.324 | 5.47 | -2.31 | 3.45 | -2.82 |
| COc1ccccc1N1C(=O)c2cc3ccccc3n2CC1(C)C(=O)NC1CCCC1 (stereo not given) | -1.53 | 7.55 | -0.226 | 0.019 | -1.08 |
| Cn1ncc(N2CCC(CNC(=O)CCN3CCCC3=O)C2)cc1=O (stereo not given) | -3.6 | 3.69 | 0.496 | -2.6 | 11.2 |
| Cc1ccccc1CSc1nnc2n(CC(C)C)c(=O)c3ccc(C(=O)NC(C)C)cc3n12 | 5.16 | 0.953 | 5.72 | -1.18 | 2.95 |
| Cc1c(Cl)cccc1N1C(=O)c2cc3occc3n2CC1(C)C(=O)NC1CCCCC1 (stereo not given) | 0.631 | 4.68 | 2.92 | 4.78 | -1.2 |
| CC1=CCC(C(C)(C)O[C@@H]2O[C@H](CO[C@@H]3O[C@@H](C)[C@H](O)[C@@H](O)[C@H]3O)[C@@H](O)[C@H](O)[C@H]2O)CC1 (stereo not given in full) | 0 | 8.01 | 10.3 | -5.82 | 6.2 |
| CCN(CC)CCNC(=O)CCc1nnc2n(Cc3ccc(C)cc3)c(=O)c3ccccc3n12 | -8.58 | 4.26 | -40.5 | 5.4 | -8.29 |
| CCCn1c(=O)c2ccc(Cl)cc2n2c(SCC(=O)Nc3cccc(OC)c3)nnc12 | 0.11 | 3.38 | 4.79 | -3.22 | -1.66 |
| Nc1ccc(-c2cccc3c(=O)cc(N4CCOCC4)oc23)cc1 | -4.55 | 3.65 | 2.97 | -46.9 | -0.724 |
| COc1ccc(/C=C/C(=O)N2CCCC2)cc1 | -4.66 | -6.5 | 1.31 | -15.7 | -9.41 |

| SMILES | activity change, negative = inhibition [1] [%] | activity change, negative = inhibition [2] [%] | activity change, negative = inhibition [3] [%] | activity change, negative = inhibition [4] [%] | activity change, negative = inhibition [5] [%] |
| --- | --- | --- | --- | --- | --- |
| CC(NC(=O)CC(=O)O)C(=O)Nc1ccccc1C(N)=O (stereo not given) | 1.49 | 4.6 | 5.26 | -8.05 | 5.64 |
| Cc1ccsc1C(=O)N1CCN(c2cc(-c3cccs3)[nH]n2)CC1 | -8.67 | -3.01 | -2.32 | -9.45 | -3.78 |
| CCCn1c(=O)c2ccc(Cl)cc2n2c(SCC(=O)Nc3cccc(C)c3)nnc12 | -2.59 | 2.02 | 0.382 | -0.116 | -2.14 |
| CC1=C(C(=O)OC2CCCCC2)C(c2ccc([N+](=O)[O-])cc2)C2=C(CC(C)(C)CC2=O)N1 (stereo not given) | -81.3 | -87.8 | -44.2 | -57.7 | -33 |
| O=C(Nc1ccccc1F)N1Cc2c(sc3c2CCCC3)-n2cccc2C1c1cccc(F)c1 (stereo not given) | 2.07 | 0.438 | 3.18 | -0.235 | 5.06 |
| CCCC1c2cccn2CCN1C(=O)Nc1cc(OC)cc(OC)c1 (stereo not given) | -3.67 | 0 | -18.2 | -3.22 | 2.07 |
| Cc1ccc(NS(=O)(=O)c2ccc3c(c2)[C@H]2C=CC[C@H]2[C@@H](c2cccc(Cl)c2)N3)c(C)c1 | -7.77 | -11.4 | -22.1 | -33.2 | -15 |
| CCOC(=O)c1cc2n(n1)CC(C)(C(=O)NC1CCCCC1)N(c1ccc(C)cc1Cl)C2=O (stereo not given) | 3.21 | 2.79 | -4.26 | 2.81 | 0.337 |
| COc1cc(NC(=O)Cn2nc3n(CCc4ccccc4)c(=O)c4ccccc4n3c2=O)cc(OC)c1 | 8.27 | 1.21 | 12.6 | 9.75 | 7.37 |
| C=C(C)C1CCC2(C(=O)O)CCC3(C(=O)O)C(CCC4C5(C)CCC(O)C(C)(C(=O)O)C5CCC43C)C12 (stereo not given) | 0 | -3.75 | -4.72 | -13.7 | 1.06 |
| COCC1(C(=O)N2C[C@@H](C(=O)O)[C@H](c3ccccc3OC)C2)CCC1 | -3.86 | -4.95 | -2.22 | -2.93 | -2.75 |
| CCCn1c(=O)c2ccccc2n2c(SCC(=O)Nc3ccc4c(c3)OCO4)nnc12 | -7.84 | 0 | 5.59 | -7.24 | 0.107 |
| CN1C(=O)c2cc(C(=O)NCCCN3CCCCC3)nn2CC1(C)C(=O)NC1CCCC1 (stereo not given) | -3.52 | 0 | 1.75 | -5.04 | -5.49 |
| CC[C@@H](C)[C@H]1C(=O)O[C@H](C(C)C)C(=O)N(C)[C@@H](C(C)C)C(=O)O[C@H](C(C)C)C(=O)N(C)[C@@H](C(C)C)C(=O)O[C@H](CC(C)C)C(=O)N1C | 5.21 | 6.77 | 10.3 | -6.21 | -5.18 |
| COC(=O)c1cc2n(n1)CC(C)(C(=O)NC1CCC(C)CC1)N(Cc1ccccc1OC)C2=O (stereo not given) | 3.01 | 4.81 | 2.39 | -1.42 | 1.74 |
| CCOC(=O)N1CCC(Oc2cnc3c(ccn3-c3cncnc3)c2)CC1 | -14.8 | -14.2 | -20.1 | -21.1 | -13.5 |
| CC(C)CCn1c(=O)c2ccc(C(=O)NC3CCCCC3)cc2n2c(=O)n(C)nc12 | 1.3 | 4.75 | 4.47 | 2.73 | 1.34 |
| CC(C)n1c(=O)c2ccc(C(=O)NC3CCCCC3)cc2n2c(=O)n(Cc3ccccc3F)nc12 | -1.68 | 2.85 | 3.6 | -2.36 | 0.424 |

Source: PubChem BioAssay AID1745853 (National Center for Advancing Translational Sciences (NCATS), 2022)
